# The other results are listed elsewhere or left out.
# Target: T1, MBP-FoxP1dN (Mus musculus, UniProt P58462 326-579)
# T1 sequence: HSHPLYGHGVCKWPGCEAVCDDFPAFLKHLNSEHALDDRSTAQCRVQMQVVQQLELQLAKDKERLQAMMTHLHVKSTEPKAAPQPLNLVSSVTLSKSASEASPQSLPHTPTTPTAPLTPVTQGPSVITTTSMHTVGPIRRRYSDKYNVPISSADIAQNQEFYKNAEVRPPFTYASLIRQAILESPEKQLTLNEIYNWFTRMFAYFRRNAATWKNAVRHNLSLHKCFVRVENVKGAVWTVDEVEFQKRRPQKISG
# Test: PD-seq (MBP pull-down with sequencing); 20 mM Tris-HCl pH 7.5, 100 mM NaCl, 1.5 mM MgCl2, 0.4 uM protein, 0.1 uM dsDNA library, 30 min, room temperature, amylose pull-down; high values mean tight binding
# Details: protein: recombinant; tags: His6-MBP; chain copies: 2; dsDNA, one strand shown
# Summary of the method: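 Binding is the reads-per-million enrichment of pull-down relative to input, pooled across replicates. For this, 0.4 µM His6-MBP-tagged mouse FoxP3 or FoxP1 fragment lacking the N-terminus, made in E. coli, was incubated with 0.1 µM Klenow-filled double-stranded degenerate DNA library for 30 min at room temperature in Tris pH 7.5 buffer with NaCl and MgCl2. Complexes bound to amylose resin were washed three times before proteinase K released the DNA for PCR barcoding and Illumina sequencing.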
row,Sequence,binding signal
1,GATGATTGTTCTCCCAGCTGATGAATTGGGATCTTCGAGTAAACAAATTTTCCTAATCTTTCTGTTCAAGCGCCATCTAC,0.82 RPM ratio (pull-down/input)
2,GATGATTGTTCTCCCAGCTGATGAATTCACCGGATCGAGTAAACAAATTTTCCTAATCTTTCTGTTCAAGCGCCATCTAC,0.794 RPM ratio (pull-down/input)
3,GATGATTGTTCTCCCAGCTGATGAATTTTACCCTTCGAGTAAACAAATTTTCCTAATCTTTCTGTTCAAGCGCCATCTAC,0.813 RPM ratio (pull-down/input)
4,GATGATTGTTCTCCCAGCTGATGAATTCAAATCATCGAGTAAACAAATTTTCCTAATCTTTCTGTTCAAGCGCCATCTAC,0.995 RPM ratio (pull-down/input)
5,GATGATTGTTCTCCCAGCTGATGAATTTCGTTCCTCGAGTAAACAAATTTTCCTAATCTTTCTGTTCAAGCGCCATCTAC,0.858 RPM ratio (pull-down/input)
6,GATGATTGTTCTCCCAGCTGATGAATTCATACCCTCGAGTAAACAAATTTTCCTAATCTTTCTGTTCAAGCGCCATCTAC,0.79 RPM ratio (pull-down/input)
7,GATGATTGTTCTCCCAGCTGATGAATTGGAAACGTCGAGTAAACAAATTTTCCTAATCTTTCTGTTCAAGCGCCATCTAC,0.803 RPM ratio (pull-down/input)
8,GATGATTGTTCTCCCAGCTGATGAATTTGGTCAATCGAGTAAACAAATTTTCCTAATCTTTCTGTTCAAGCGCCATCTAC,0.985 RPM ratio (pull-down/input)
9,GATGATTGTTCTCCCAGCTGATGAATTTACAGCGTCGAGTAAACAAATTTTCCTAATCTTTCTGTTCAAGCGCCATCTAC,1.13 RPM ratio (pull-down/input)
10,GATGATTGTTCTCCCAGCTGATGAATTTGCAAGATCGAGTAAACAAATTTTCCTAATCTTTCTGTTCAAGCGCCATCTAC,0.998 RPM ratio (pull-down/input)
11,GATGATTGTTCTCCCAGCTGATGAATTAATATCGTCGAGTAAACAAATTTTCCTAATCTTTCTGTTCAAGCGCCATCTAC,1.04 RPM ratio (pull-down/input)
12,GATGATTGTTCTCCCAGCTGATGAATTACTACGATCGAGTAAACAAATTTTCCTAATCTTTCTGTTCAAGCGCCATCTAC,1.03 RPM ratio (pull-down/input)
13,GATGATTGTTCTCCCAGCTGATGAATTCTACCCGTCGAGTAAACAAATTTTCCTAATCTTTCTGTTCAAGCGCCATCTAC,0.825 RPM ratio (pull-down/input)
14,GATGATTGTTCTCCCAGCTGATGAATTAGCAGGCTCGAGTAAACAAATTTTCCTAATCTTTCTGTTCAAGCGCCATCTAC,0.82 RPM ratio (pull-down/input)
15,GATGATTGTTCTCCCAGCTGATGAATTAACGTGGTCGAGTAAACAAATTTTCCTAATCTTTCTGTTCAAGCGCCATCTAC,0.835 RPM ratio (pull-down/input)
16,GATGATTGTTCTCCCAGCTGATGAATTCCCCTCCTCGAGTAAACAAATTTTCCTAATCTTTCTGTTCAAGCGCCATCTAC,0.793 RPM ratio (pull-down/input)
17,GATGATTGTTCTCCCAGCTGATGAATTACAAGGGTCGAGTAAACAAATTTTCCTAATCTTTCTGTTCAAGCGCCATCTAC,1.01 RPM ratio (pull-down/input)
18,GATGATTGTTCTCCCAGCTGATGAATTTTCGTGTTCGAGTAAACAAATTTTCCTAATCTTTCTGTTCAAGCGCCATCTAC,1.01 RPM ratio (pull-down/input)
19,GATGATTGTTCTCCCAGCTGATGAATTCGTCGTTTCGAGTAAACAAATTTTCCTAATCTTTCTGTTCAAGCGCCATCTAC,0.861 RPM ratio (pull-down/input)
20,GATGATTGTTCTCCCAGCTGATGAATTCCAGATATCGAGTAAACAAATTTTCCTAATCTTTCTGTTCAAGCGCCATCTAC,0.864 RPM ratio (pull-down/input)
21,GATGATTGTTCTCCCAGCTGATGAATTACGTGGTTCGAGTAAACAAATTTTCCTAATCTTTCTGTTCAAGCGCCATCTAC,0.982 RPM ratio (pull-down/input)

row,Sequence,binding signal
1,GATGATTGTTCTCCCAGCTGATGAATTGTCTACATCGAGTAAACAAATTTTCCTAATCTTTCTGTTCAAGCGCCATCTAC,1.33 RPM ratio (pull-down/input)
2,GATGATTGTTCTCCCAGCTGATGAATTTTCGAGCTCGAGTAAACAAATTTTCCTAATCTTTCTGTTCAAGCGCCATCTAC,0.794 RPM ratio (pull-down/input)
3,GATGATTGTTCTCCCAGCTGATGAATTGGATGCCTCGAGTAAACAAATTTTCCTAATCTTTCTGTTCAAGCGCCATCTAC,1.03 RPM ratio (pull-down/input)
4,GATGATTGTTCTCCCAGCTGATGAATTAGTCCTCTCGAGTAAACAAATTTTCCTAATCTTTCTGTTCAAGCGCCATCTAC,0.936 RPM ratio (pull-down/input)
5,GATGATTGTTCTCCCAGCTGATGAATTTTTCCGATCGAGTAAACAAATTTTCCTAATCTTTCTGTTCAAGCGCCATCTAC,0.946 RPM ratio (pull-down/input)
6,GATGATTGTTCTCCCAGCTGATGAATTGACACATTCGAGTAAACAAATTTTCCTAATCTTTCTGTTCAAGCGCCATCTAC,1.45 RPM ratio (pull-down/input)
7,GATGATTGTTCTCCCAGCTGATGAATTAAGGGATTCGAGTAAACAAATTTTCCTAATCTTTCTGTTCAAGCGCCATCTAC,0.998 RPM ratio (pull-down/input)
8,GATGATTGTTCTCCCAGCTGATGAATTCACGTCCTCGAGTAAACAAATTTTCCTAATCTTTCTGTTCAAGCGCCATCTAC,0.806 RPM ratio (pull-down/input)
9,GATGATTGTTCTCCCAGCTGATGAATTTAATGCATCGAGTAAACAAATTTTCCTAATCTTTCTGTTCAAGCGCCATCTAC,1.43 RPM ratio (pull-down/input)
10,GATGATTGTTCTCCCAGCTGATGAATTTGTTTAATCGAGTAAACAAATTTTCCTAATCTTTCTGTTCAAGCGCCATCTAC,1.64 RPM ratio (pull-down/input)
11,GATGATTGTTCTCCCAGCTGATGAATTAAGCCCCTCGAGTAAACAAATTTTCCTAATCTTTCTGTTCAAGCGCCATCTAC,0.8 RPM ratio (pull-down/input)
12,GATGATTGTTCTCCCAGCTGATGAATTATCCTAGTCGAGTAAACAAATTTTCCTAATCTTTCTGTTCAAGCGCCATCTAC,0.969 RPM ratio (pull-down/input)
13,GATGATTGTTCTCCCAGCTGATGAATTTCATAGATCGAGTAAACAAATTTTCCTAATCTTTCTGTTCAAGCGCCATCTAC,0.88 RPM ratio (pull-down/input)
14,GATGATTGTTCTCCCAGCTGATGAATTTTTATAGTCGAGTAAACAAATTTTCCTAATCTTTCTGTTCAAGCGCCATCTAC,1.05 RPM ratio (pull-down/input)
15,GATGATTGTTCTCCCAGCTGATGAATTACTGGCTTCGAGTAAACAAATTTTCCTAATCTTTCTGTTCAAGCGCCATCTAC,0.917 RPM ratio (pull-down/input)
16,GATGATTGTTCTCCCAGCTGATGAATTTCGCGGCTCGAGTAAACAAATTTTCCTAATCTTTCTGTTCAAGCGCCATCTAC,0.819 RPM ratio (pull-down/input)
17,GATGATTGTTCTCCCAGCTGATGAATTGTTGGCATCGAGTAAACAAATTTTCCTAATCTTTCTGTTCAAGCGCCATCTAC,1.51 RPM ratio (pull-down/input)
18,GATGATTGTTCTCCCAGCTGATGAATTAGAGAGTTCGAGTAAACAAATTTTCCTAATCTTTCTGTTCAAGCGCCATCTAC,0.844 RPM ratio (pull-down/input)
19,GATGATTGTTCTCCCAGCTGATGAATTCAGCCCGTCGAGTAAACAAATTTTCCTAATCTTTCTGTTCAAGCGCCATCTAC,0.791 RPM ratio (pull-down/input)
20,GATGATTGTTCTCCCAGCTGATGAATTAGAAGAGTCGAGTAAACAAATTTTCCTAATCTTTCTGTTCAAGCGCCATCTAC,0.873 RPM ratio (pull-down/input)
21,GATGATTGTTCTCCCAGCTGATGAATTTAAGACATCGAGTAAACAAATTTTCCTAATCTTTCTGTTCAAGCGCCATCTAC,1.05 RPM ratio (pull-down/input)

row,Sequence,binding signal
1,GATGATTGTTCTCCCAGCTGATGAATTGGCCTCATCGAGTAAACAAATTTTCCTAATCTTTCTGTTCAAGCGCCATCTAC,0.891 RPM ratio (pull-down/input)
2,GATGATTGTTCTCCCAGCTGATGAATTGAGAGATTCGAGTAAACAAATTTTCCTAATCTTTCTGTTCAAGCGCCATCTAC,0.823 RPM ratio (pull-down/input)
3,GATGATTGTTCTCCCAGCTGATGAATTGTCTAATTCGAGTAAACAAATTTTCCTAATCTTTCTGTTCAAGCGCCATCTAC,1.21 RPM ratio (pull-down/input)
4,GATGATTGTTCTCCCAGCTGATGAATTCAGGGAGTCGAGTAAACAAATTTTCCTAATCTTTCTGTTCAAGCGCCATCTAC,0.833 RPM ratio (pull-down/input)
5,GATGATTGTTCTCCCAGCTGATGAATTAGTTTCATCGAGTAAACAAATTTTCCTAATCTTTCTGTTCAAGCGCCATCTAC,0.996 RPM ratio (pull-down/input)
6,GATGATTGTTCTCCCAGCTGATGAATTGGTACCATCGAGTAAACAAATTTTCCTAATCTTTCTGTTCAAGCGCCATCTAC,1.08 RPM ratio (pull-down/input)
7,GATGATTGTTCTCCCAGCTGATGAATTTCATAATTCGAGTAAACAAATTTTCCTAATCTTTCTGTTCAAGCGCCATCTAC,0.937 RPM ratio (pull-down/input)
8,GATGATTGTTCTCCCAGCTGATGAATTTATTAAGTCGAGTAAACAAATTTTCCTAATCTTTCTGTTCAAGCGCCATCTAC,1.25 RPM ratio (pull-down/input)
9,GATGATTGTTCTCCCAGCTGATGAATTAGTCCACTCGAGTAAACAAATTTTCCTAATCTTTCTGTTCAAGCGCCATCTAC,0.937 RPM ratio (pull-down/input)
10,GATGATTGTTCTCCCAGCTGATGAATTTGACCTTTCGAGTAAACAAATTTTCCTAATCTTTCTGTTCAAGCGCCATCTAC,0.814 RPM ratio (pull-down/input)
11,GATGATTGTTCTCCCAGCTGATGAATTCGGACGGTCGAGTAAACAAATTTTCCTAATCTTTCTGTTCAAGCGCCATCTAC,0.816 RPM ratio (pull-down/input)
12,GATGATTGTTCTCCCAGCTGATGAATTTAGATACTCGAGTAAACAAATTTTCCTAATCTTTCTGTTCAAGCGCCATCTAC,1.17 RPM ratio (pull-down/input)
13,GATGATTGTTCTCCCAGCTGATGAATTAGTCAAGTCGAGTAAACAAATTTTCCTAATCTTTCTGTTCAAGCGCCATCTAC,0.886 RPM ratio (pull-down/input)
14,GATGATTGTTCTCCCAGCTGATGAATTAAACGTCTCGAGTAAACAAATTTTCCTAATCTTTCTGTTCAAGCGCCATCTAC,0.828 RPM ratio (pull-down/input)
15,GATGATTGTTCTCCCAGCTGATGAATTATAATGGTCGAGTAAACAAATTTTCCTAATCTTTCTGTTCAAGCGCCATCTAC,1.05 RPM ratio (pull-down/input)
16,GATGATTGTTCTCCCAGCTGATGAATTGAGAAAGTCGAGTAAACAAATTTTCCTAATCTTTCTGTTCAAGCGCCATCTAC,0.827 RPM ratio (pull-down/input)
17,GATGATTGTTCTCCCAGCTGATGAATTTCGAATATCGAGTAAACAAATTTTCCTAATCTTTCTGTTCAAGCGCCATCTAC,0.969 RPM ratio (pull-down/input)
18,GATGATTGTTCTCCCAGCTGATGAATTTCCATGCTCGAGTAAACAAATTTTCCTAATCTTTCTGTTCAAGCGCCATCTAC,0.828 RPM ratio (pull-down/input)
19,GATGATTGTTCTCCCAGCTGATGAATTATGCAAATCGAGTAAACAAATTTTCCTAATCTTTCTGTTCAAGCGCCATCTAC,1.33 RPM ratio (pull-down/input)
20,GATGATTGTTCTCCCAGCTGATGAATTAGTCTAATCGAGTAAACAAATTTTCCTAATCTTTCTGTTCAAGCGCCATCTAC,1.22 RPM ratio (pull-down/input)
21,GATGATTGTTCTCCCAGCTGATGAATTCCTAACCTCGAGTAAACAAATTTTCCTAATCTTTCTGTTCAAGCGCCATCTAC,0.838 RPM ratio (pull-down/input)
